Data taken from patent US11932637B2, “Chromane amidine monobactam compounds for the treatment of bacterial infections” (priority 2021, dated 2024).
The name of at least one read-out is uncertain.

Experiments:
[1] = test system: Escherichia coli expressing NDM-1 (CLB30016); test: Antibiotic activity: growth inhibitory concentration (OD600), E. coli CLB30016; format: cell-based; details: concentration inhibiting 95% of bacterial growth, with BLi Relebactam 4 μg/mL, 22 hours
Description: (§1) Biological Assays Antibiotic Activity: Determination of Growth Inhibitory Concentration The concentrations of compounds required to inhibit the growth of various strains of bacteria were determined in an assay that assessed bacterial growth by measuring optical density at 600 nm (OD600). The bacterial strains tested included the clinical strains Escherichia coli expressing NDM-1 (CLB30016), Klebsiella pneumoniae expressing KPC-1 (CL6569), Acinetobacter baumannii expressing TEM-1, AmpC, and Oxa-24/40 (CL6188) and Pseudomonas aeruginosa expressing AmpC (CL5701). All compounds were tested in the presence of a β lactamase inhibitor (BLi, Relebactam) in 384-well microplates.
(§2) The clinical strains were stored as frozen single use stocks, thawed and diluted into 1.1× cation-adjusted Mueller-Hinton II broth to achieve approximately 2×10^5 CFU/mL. Test compounds were dissolved in DMSO and diluted 1:50 in the assay, resulting in a final concentration range of 100 μM to 0.098 μM. On the day of the assay, 1 μL of test compound was added to the plate followed by 4 μL of 50 μg/mL BLi in MOPS buffer and 45 μL of diluted bacteria. Plates were centrifuged at 1000 rpm for 30 seconds, shaken at approximately 800 rpm for 1 minute, and incubated at 35 t 2° C. for 22 hours. The concentration of BLi used in the assay was 4 μg/mL. At the end of the incubation, absorbance at 600 nm was determined using a spectrophotometer. Inhibition was quantitated by identifying the lowest concentration of test compound that was required to inhibit 95% of the growth of the bacteria.

[2] = test system: Pseudomonas aeruginosa expressing AmpC (CL5701); test: Antibiotic activity: growth inhibitory concentration (OD600), P. aeruginosa CL5701; format: cell-based; details: concentration inhibiting 95% of bacterial growth, with BLi Relebactam 4 μg/mL, 22 hours
Description: as §1, §2

| Compound | EC_CLB30016 MITC95 [1] [µM] | PA_CL5701 MITC95 [2] [µM] |
| --- | --- | --- |
| CC1(C)[C@H](NC(=O)/C(=N\O[C@](C)(C(=O)O)[C@H]2CCc3cc(C(=N)N[C@H]4CCC5(CC4)C[C@@H](N)C5)ccc3O2)c2csc(N)n2)C(=O)N1OS(=O)(=O)O (single isomer, unassigned) [Compound 115] | 6.25 |  |
| CC1(C)[C@H](NC(=O)/C(=N\O[C@](C)(C(=O)O)[C@H]2CCc3cc(C(=N)N[C@H]4CC5(C[C@H](CN)C5)C4)ccc3O2)c2csc(N)n2)C(=O)N1OS(=O)(=O)O (single isomer, unassigned) [Compound 121] | 3.125 |  |
| CN[C@H]1C[C@H](NC(=N)c2ccc3c(c2)CC[C@H]([C@](C)(O/N=C(\C(=O)N[C@@H]2C(=O)N(OS(=O)(=O)O)C2(C)C)c2csc(N)n2)C(=O)O)O3)C1 (stereo in doubt) [Compound 67, (S)-2-((((Z)-1-(2-aminothiazol-4-yl)-2-(((S)-2,2-dimethyl-4-oxo-1-(sulfooxy)azetidin-3-yl)amino)-2-oxoethylidene)amino)oxy)-2-((R)-6-(N-(trans-3-(methylamino)cyclobutyl)carbamimidoyl)chroman-2-yl)propanoic acid] | 6.25 |  |
| CN[C@H]1C[C@@H](NC(=N)c2ccc3c(c2)CC[C@H]([C@](C)(O/N=C(\C(=O)N[C@@H]2C(=O)N(OS(=O)(=O)O)C2(C)C)c2csc(N)n2)C(=O)O)O3)C1 (stereo in doubt) [Compound 68, (S)-2-((((Z)-1-(2-aminothiazol-4-yl)-2-(((S)-2,2-dimethyl-4-oxo-1-(sulfooxy)azetidin-3-yl)amino)-2-oxoethylidene)amino)oxy)-2-((R)-6-(N-(cis-3-(methylamino)cyclobutyl)carbamimidoyl)chroman-2-yl)propanoic acid] | 3.125 |  |
| CC1(C)[C@H](NC(=O)/C(=N\O[C@](C)(C(=O)O)[C@H]2CCc3cc(C(=N)N[C@H]4CC[C@H](N)CC4)ccc3O2)c2csc(N)n2)C(=O)N1OS(=O)(=O)O [Compound 32, (S)-2-((R)-6-(N-((1r,4R)-4-aminocyclohexyl)carbamimidoyl)chroman-2-yl)-2-((((Z)-1-(2-aminothiazol-4-yl)-2-(((S)-2,2-dimethyl-4-oxo-1-(sulfooxy)azetidin-3-yl)amino)-2-oxoethylidene)amino)oxy)propanoic acid] |  | 1.563 |
| CC1(C)[C@H](NC(=O)/C(=N\O[C@](C)(C(=O)O)[C@H]2CCc3cc(C(=N)N[C@H]4CC[C@](O)(CN)CC4)ccc3O2)c2csc(N)n2)C(=O)N1OS(=O)(=O)O [Compound 59, (S)-2-((R)-6-(N-((1s,4S)-4-(aminomethyl)-4-hydroxycyclohexyl)carbamimidoyl)chroman-2-yl)-2-((((Z)-1-(2-aminothiazol-4-yl)-2-(((S)-2,2-dimethyl-4-oxo-1-(sulfooxy)azetidin-3-yl)amino)-2-oxoethylidene)amino)oxy)propanoic acid] | 12.5 | 1.563 |
| COCC[C@]1(N)CC[C@@H](NC(=N)c2ccc3c(c2)CC[C@H]([C@](C)(O/N=C(\C(=O)N[C@@H]2C(=O)N(OS(=O)(=O)O)C2(C)C)c2csc(N)n2)C(=O)O)O3)CC1 [Compound 63, (S)-2-((R)-6-(N-((1s,4S)-4-amino-4-(2-methoxyethyl)cyclohexyl)carbamimidoyl)chroman-2-yl)-2-((((Z)-1-(2-aminothiazol-4-yl)-2-(((S)-2,2-dimethyl-4-oxo-1-(sulfooxy)azetidin-3-yl)amino)-2-oxoethylidene)amino)oxy)propanoic acid] | 12.5 | 3.125 |
| COCC[C@]1(N)CC[C@H](NC(=N)c2ccc3c(c2)CC[C@H]([C@](C)(O/N=C(\C(=O)N[C@@H]2C(=O)N(OS(=O)(=O)O)C2(C)C)c2csc(N)n2)C(=O)O)O3)CC1 [Compound 64, (S)-2-((R)-6-(N-((1r,4R)-4-amino-4-(2-methoxyethyl)cyclohexyl)carbamimidoyl)chroman-2-yl)-2-((((Z)-1-(2-aminothiazol-4-yl)-2-(((S)-2,2-dimethyl-4-oxo-1-(sulfooxy)azetidin-3-yl)amino)-2-oxoethylidene)amino)oxy)propanoic acid] | 6.25 | 3.125 |
| CC1(C)[C@H](NC(=O)/C(=N\O[C@](C)(C(=O)O)[C@H]2CCc3cc(C(=N)N[C@H]4C[C@](N)(CCO)C4)ccc3O2)c2csc(N)n2)C(=O)N1OS(=O)(=O)O [Compound 86, (S)-2-((R)-6-(N-((1s,3S)-3-amino-3-(2-hydroxyethyl)cyclobutyl)carbamimidoyl)chroman-2-yl)-2-((((Z)-1-(2-aminothiazol-4-yl)-2-(((S)-2,2-dimethyl-4-oxo-1-(sulfooxy)azetidin-3-yl)amino)-2-oxoethylidene)amino)oxy)propanoic acid] |  | 1.563 |
| CC1(C)[C@H](NC(=O)/C(=N\O[C@](C)(C(=O)O)[C@H]2CCc3cc(C(=N)N[C@H]4C[C@@](N)(CCO)C4)ccc3O2)c2csc(N)n2)C(=O)N1OS(=O)(=O)O [Compound 87, (S)-2-((R)-6-(N-((1r,3R)-3-amino-3-(2-hydroxyethyl)cyclobutyl)carbamimidoyl)chroman-2-yl)-2-((((Z)-1-(2-aminothiazol-4-yl)-2-(((S)-2,2-dimethyl-4-oxo-1-(sulfooxy)azetidin-3-yl)amino)-2-oxoethylidene)amino)oxy)propanoic acid] |  | 1.563 |
| CC1(C)[C@H](NC(=O)/C(=N\O[C@](C)(C(=O)O)[C@H]2CCc3cc(C(=N)N[C@H]4C[C@@](N)(C(O)CO)C4)ccc3O2)c2csc(N)n2)C(=O)N1OS(=O)(=O)O (stereo partly drawn) [Compound 98, (S)-2-((R)-6-(N-((1S,3R)-3-amino-3-((S)-1,2-dihydroxyethyl)cyclobutyl)carbamimidoyl)-chroman-2-yl)-2-((((Z)-1-(2-aminothiazol-4-yl)-2-(((S)-2,2-dimethyl-4-oxo-1-(sulfooxy)azetidin-3-yl)amino)-2-oxoethylidene)amino)oxy)propanoic acid] | 12.5 |  |
| CC1(C)[C@H](NC(=O)/C(=N\O[C@](C)(C(=O)O)[C@H]2CCc3cc(C(=N)N[C@]4(C)CC[C@](N)(CO)CC4)ccc3O2)c2csc(N)n2)C(=O)N1OS(=O)(=O)O [Compound 135, (S)-2-((R)-6-(N-((1r,4R)-4-amino-4-(hydroxymethyl)-1-methylcyclohexyl)-carbamimidoyl)chroman-2-yl)-2-((((Z)-1-(2-aminothiazol-4-yl)-2-(((S)-2,2-dimethyl-4-oxo-1-(sulfooxy)azetidin-3-yl)amino)-2-oxoethylidene)amino)oxy)propanoic acid] |  | 3.125 |
| CC1(C)[C@H](NC(=O)/C(=N\O[C@](C)(C(=O)O)[C@H]2CCc3cc(C(=N)NC4(CCN)CC4)ccc3O2)c2csc(N)n2)C(=O)N1OS(=O)(=O)O [Compound 138, (S)-2-((R)-6-(N-(1-(2-aminoethyl)cyclopropyl)carbamimidoyl)chroman-2-yl)-2-((((Z)-1-(2-aminothiazol-4-yl)-2-(((S)-2,2-dimethyl-4-oxo-1-(sulfooxy)azetidin-3-yl)amino)-2-oxoethylidene)amino)oxy)propanoic acid] | 25 |  |
